Laboratory results reported in the RNAGym collection of RNA variant scans (doi:10.7554/elife.90254).
The source gives no read counts; variants with many changes may rest on few reads.

B1: LINE1-mini (parent)
chain: GGCAGAGCUCAACACAGCGUGGCAAAGUGGCUGUGGCUAGACUGCC

Variants of: B1
Test: self-cleavage, relative activity (ratio to wild type); higher = more cleavage; in vitro, sequencing; the parent is a self-cleaving ribozyme

Question: Which self-cleavage does the source give for GGGAGAGCUCAACACAGCGUGGCAAAGUGGGUGUGGCAAGACUGCC [C3G C31G U38A] here?
Answer: Its self-cleavage is 0.04.

Question: Which self-cleavage does the source give for GGCAGGGCUCGACACAGCGUAGCAAAGUGCCUGUGGCUAGACUGCC [A6G A11G G21A G30C] here?
Answer: Its self-cleavage is 0.02.

Question: Which self-cleavage does the source give for GGCAGAGAUCAACACAGGGUGGCUAAGUGGCUGUGGCUAGACUGCC [C8A C18G A24U] here?
Answer: The self-cleavage was 0.15.

Question: For GGCAUAGCUCACCACAGCGUGGCAAAGUUACUGUGGCUAGACUGCC [G5U A12C G29U G30A], which self-cleavage is on record?
Answer: Its self-cleavage is 0.01.

Question: Which self-cleavage does the source give for GGCAGCACCUAACACAGCGUGGCAAAGUAGCUGUGGUCAGACUGCC [A6C G7A U9C C10U G29A C37U U38C] here?
Answer: The self-cleavage was 0.01.

Question: For GGCAGAGCUGAACACAGCGUGGCAAACUGGAUGUGGCUAGACUGAC [C10G G27C C31A C45A], which self-cleavage is on record?
Answer: The self-cleavage was 0.02.

Question: Which self-cleavage does the source give for GGCAGAUCUCACCACAGCGUGGCAAAGUGGCUGUGUCUAGACUGCC [G7U A12C G36U] here?
Answer: Its self-cleavage is 0.04.

Question: With GGCAGAGCUCAACACAGCGGGGAACAGUGGCUGUGGCUAGACUGCC [U20G C23A A25C] as the variant, how does the self-cleavage read?
Answer: The self-cleavage was 0.25.

Question: Which self-cleavage does the source give for GGCAGAGCUCAUCACAGCGUGGAAAAGUGGCUGUGGCUAAACUGCC [A12U C23A G40A] here?
Answer: The self-cleavage was 0.08.

Question: For GGCACAGCUCAUCACAGCGUGGCAAAAUGGCUGUGGCUAGACUGCC [G5C A12U G27A], which self-cleavage is on record?
Answer: Its self-cleavage is 0.03.

Question: With GGCAGAGCUCAACACAUCGUGGCAAAGUAGCUGUAGCUAGACUUCU [G17U G29A G35A G44U C46U] as the variant, how does the self-cleavage read?
Answer: The self-cleavage was 0.01.

Question: For UGCACAGCUCAGCACAGCGUGGCAAAGUGGCUGUGGCUAGACUGGC [G1U G5C A12G C45G], which self-cleavage is on record?
Answer: The self-cleavage was 0.

Question: Which self-cleavage does the source give for GGUAGAGCUCAACAUAACGUGGCAAAGUGGCUGUGGCAAGAAUGCC [C3U C15U G17A U38A C42A] here?
Answer: The self-cleavage was 0.16.

Question: For GGCAGAGCUCAAAACAGAGUGGCAUAGUGGCUGUGGCUAGACUGCC [C13A C18A A25U], which self-cleavage is on record?
Answer: The self-cleavage was 0.03.

Question: With GGCUCAGCUCAACACAGCGUGGCAAAGUGGCUGUGGCUAGACUGUC [A4U G5C C45U] as the variant, how does the self-cleavage read?
Answer: The self-cleavage was 0.05.

Question: For GGAAGAGCUCAACACCUCGUGGCAAAGUGGCUGUGGCUAGACUGCC [C3A A16C G17U], which self-cleavage is on record?
Answer: Its self-cleavage is 0.27.

Question: Which self-cleavage does the source give for GGCAGGUCACGACACAGCGUGGCAAAGUAGCUGAGGCUAGACUGCC [A6G G7U U9A A11G G29A U34A] here?
Answer: Its self-cleavage is 0.02.

Question: For GGCAGAGCCCAAUACCGCUUGGCAAAGUGGCUGUGGAUAGACUGCC [U9C C13U A16C G19U C37A], which self-cleavage is on record?
Answer: The self-cleavage was 0.02.

Question: With GGCAAAGAUCAACACAACAUGGCAAAGUGGCUGUGUCUAGACUGCC [G5A C8A G17A G19A G36U] as the variant, how does the self-cleavage read?
Answer: The self-cleavage was 0.15.

Question: For GGCAGAGCUCAACACAGCGGGGCAAAGUGGCUAUUGCCAGCCUGCC [U20G G33A G35U U38C A41C], which self-cleavage is on record?
Answer: Its self-cleavage is 0.01.

Question: Which self-cleavage does the source give for GGCGGAGCUCAACACCGCGUGCCAAAGUCGCUGUGGCUAGACUGCC [A4G A16C G22C G29C] here?
Answer: Its self-cleavage is 0.16.

Question: With GGCAGAGCUCGACACAGCGUGGCAAAGUGUCUGUGGUUAGACUUCC [A11G G30U C37U G44U] as the variant, how does the self-cleavage read?
Answer: Its self-cleavage is 0.01.

Question: Which self-cleavage does the source give for GGCAGAGCUCAACACAGGGUGUAAAAGUGGCUGUGGCUAGACUGCC [C18G G22U C23A] here?
Answer: The self-cleavage was 1.42.

Question: For GGCAGAGCUCAACACAUCGUGGGAAAGUGGCUGUGGGUAGAGUGCC [G17U C23G C37G C42G], which self-cleavage is on record?
Answer: Its self-cleavage is 0.02.

Question: Which self-cleavage does the source give for GGCAGAGCUCAACACAGUGGGGCAAAGUGCCUGUGGCUAUACUGCC [C18U U20G G30C G40U] here?
Answer: Its self-cleavage is 0.02.

Question: Which self-cleavage does the source give for GGCAUAGCUCUAGACAGCGUGGCAAGUUGGUUGUGGCUAGAGUACC [G5U A11U C13G A26G G27U C31U C42G G44A] here?
Answer: Its self-cleavage is 0.01.

Question: Which self-cleavage does the source give for CGCUGAGCUCAACACAGCGUGGCAAAGUGGCUGUGGUUAGACUGCC [G1C A4U C37U] here?
Answer: Its self-cleavage is 0.02.

Question: For GGCAGUGCUCAACACAGCGUGGCAACGUGGCUGUGGCUAGAUUGCC [A6U A26C C42U], which self-cleavage is on record?
Answer: Its self-cleavage is 0.34.

Question: With GGCAGAGCUCAACACGGCGUGGCAAAGGGCCUGUGGCUAAACUGCC [A16G U28G G30C G40A] as the variant, how does the self-cleavage read?
Answer: The self-cleavage was 0.01.

Question: With GUCAGAGGUCAACACAGCGUGGCAAAGUGGCUGUGGCUGGACUGCC [G2U C8G A39G] as the variant, how does the self-cleavage read?
Answer: Its self-cleavage is 0.02.

Question: Which self-cleavage does the source give for GGCAUAGCUCAACACAACGUUGCAAAGUGGCUGUGGCUAUACUGCC [G5U G17A G21U G40U] here?
Answer: The self-cleavage was 0.02.

Question: With GGCAGAGCUCAACACAGCGAGGUAAAGUAGCUGUCGCUAGACUGCC [U20A C23U G29A G35C] as the variant, how does the self-cleavage read?
Answer: Its self-cleavage is 0.34.

Question: For GGCAGAGCUCAACACACCGUGGCAAAGUGGCUGUAGAUAGGCUGAA [G17C G35A C37A A41G C45A C46A], which self-cleavage is on record?
Answer: Its self-cleavage is 0.01.

Question: Which self-cleavage does the source give for GGCUAAUCUCAACACAGCGUGGCAAAGUGGCUGUGGCUAAACUGCC [A4U G5A G7U G40A] here?
Answer: Its self-cleavage is 0.12.

Question: For GACAGAGCUAAACAGAGCGUGGCAAAGUGGAUGUGGCUAGACUACC [G2A C10A C15G C31A G44A], which self-cleavage is on record?
Answer: The self-cleavage was 0.03.

Question: Which self-cleavage does the source give for GGCAGAGCUCAACCCAGCGUGGCCAAGGGGCUGUAGCUAGACUGCC [A14C A24C U28G G35A] here?
Answer: The self-cleavage was 0.02.

Question: For GGCAGAGUUCAACACAACGUGGCAAAGUGGCUGUGGCUAGUCUGCC [C8U G17A A41U], which self-cleavage is on record?
Answer: The self-cleavage was 0.02.

Question: Which self-cleavage does the source give for GGCAGAGCUCGACACUGCGUGGCAAAGUAGCUGUGGCUAGACUCCC [A11G A16U G29A G44C] here?
Answer: The self-cleavage was 0.01.

Question: For GGCAGAGCUCAACUCAGCGAGGCAAAGUGGCUGUCGCUAGACUGCC [A14U U20A G35C], which self-cleavage is on record?
Answer: Its self-cleavage is 0.02.

Question: For GGCACAGCUCAACACAUCGUGGCAAAGUGGCUGGGGCGAGACUGCC [G5C G17U U34G U38G], which self-cleavage is on record?
Answer: Its self-cleavage is 0.01.

Question: For GGCAGAGCUCCACACAGCGUGGCAAAGUGGCUGUGGCAAGACUGCU [A11C U38A C46U], which self-cleavage is on record?
Answer: The self-cleavage was 0.03.

Question: With GGCAUAGCUCAACACAGCGUGGCAAGGUGGCUGUGGGUGGACUGCC [G5U A26G C37G A39G] as the variant, how does the self-cleavage read?
Answer: Its self-cleavage is 0.01.

Question: Which self-cleavage does the source give for GGCAGAGCUCAACACAUCGAGGUAAGGUGGCUGUGGCUAGAGUGCC [G17U U20A C23U A26G C42G] here?
Answer: Its self-cleavage is 0.02.

Question: Which self-cleavage does the source give for GGCAGAGAUCCACACAGCGUGGCAAAGUGGCUGUGGCUAAACUGCC [C8A A11C G40A] here?
Answer: The self-cleavage was 0.02.

Question: Which self-cleavage does the source give for GGCAGACCUCAACACAGCGUGGCAUAGUGGCUGUGGCGAGUCUGCC [G7C A25U U38G A41U] here?
Answer: The self-cleavage was 0.

Question: For GGCAGAGCACAACUCAGCGUGGCAAUGUGGCUGUGGCUAGACUGCC [U9A A14U A26U], which self-cleavage is on record?
Answer: The self-cleavage was 0.17.

Question: With GGCAGAGCUCUACACAGUGUGGGAAAGUGGCUGUGGCUAGACUGCC [A11U C18U C23G] as the variant, how does the self-cleavage read?
Answer: The self-cleavage was 0.05.

Question: For UGCAGAGCUCAACUCAGCGUGGCAAAAAGGCUGUGGCUUGUCAGCC [G1U A14U G27A U28A A39U A41U U43A], which self-cleavage is on record?
Answer: The self-cleavage was 0.

Question: For GGCAGAGCUCAACACAGCUUGGCAAAGUGGAUGUGGCUAUAUUGCC [G19U C31A G40U C42U], which self-cleavage is on record?
Answer: The self-cleavage was 0.02.

Question: With GGCAGAGCUAAACACAGCGUAGCAAAGUGGCAGUGGCCAGACUGCC [C10A G21A U32A U38C] as the variant, how does the self-cleavage read?
Answer: Its self-cleavage is 0.01.

Question: For GUCUGAGUUCAACACAGCGUGGCAAAGUGGCUGUGGCUAGACUGCC [G2U A4U C8U], which self-cleavage is on record?
Answer: Its self-cleavage is 0.11.

Question: For GGCAAAGUUCAACAGAGCGUGGCAAAGUGGCUGUGGCUAGACUGCC [G5A C8U C15G], which self-cleavage is on record?
Answer: The self-cleavage was 0.58.

Question: With GGCAGAGCUCAACACAGCGUGGCAACGUGGCUGUGGCAAAACUGCC [A26C U38A G40A] as the variant, how does the self-cleavage read?
Answer: The self-cleavage was 0.13.

Question: For GGCAGAUCUCAACAAAGCGUGGCAAAGUGGCCGUGGCUAGACUGCC [G7U C15A U32C], which self-cleavage is on record?
Answer: Its self-cleavage is 0.04.

Question: Which self-cleavage does the source give for UGCAGAGCUCAACACAGCGUGGCUAUGUGGCUGUGGCUAGACUGUC [G1U A24U A26U C45U] here?
Answer: Its self-cleavage is 0.99.

Question: With GGCAGAGCUCAACCCAGCGUAGCAAAGUGGGUGUGGCUAGAGUGCC [A14C G21A C31G C42G] as the variant, how does the self-cleavage read?
Answer: Its self-cleavage is 0.01.
